B1: CPEB3 Ribozyme (parent)
chain: UAACAGGGGGCCACAGCAGAAGCGUUCACGUCGCAGCCCCUGUCAGAUUCUGGUGAAUCUGCGAAUUCUGCUGUAUAUCUC

The source gives no read counts; variants with many changes may rest on few reads.

In this data set the parent is B1. The data set can be described thus: self-cleavage, relative activity (ratio to wild type); higher = more cleavage; in vitro, sequencing. A digest of the protocol: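 For each CPEB3 ribozyme variant, relative activity is its cleaved/total read fraction divided by the unmutated ribozyme's. Barcoded error-prone PCR libraries were transcribed by T7 RNA polymerase (5 hours, 37°C) and held in DNase I for 15 min before an EDTA stop, with cleavage occurring throughout. Template-switching reverse transcription and Illumina sequencing were used to read the RNAs. A 5-read minimum applied, and results are the mean of three batches.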
As for A28G U49C U60A U69A U74C, the self-cleavage came out at 0.07. For A28C G33C A75U the value was 0.43.

Turning to A28G G42A U48A, the self-cleavage came to 0.23. In the case of A28U C32G A64G U69C A77C it was 0.04; in that of A28G G30A U69A U72C, 0.13; in that of A28G U54C A64G U66G C79G, 0.11. Consider A28G C39A U51A U66C G70A U72A, for which the self-cleavage stood at 0.48. In the case of A28U G30U U49C U60A G70C U74A it was 0.1. For A28G A65G C81A the value was 0.35; for A28U U41C U43C A56U U69C, 0.07; for A28G A65U U67C U69A, 0.45. For A28G U31A A77G the value was 0.27; for A28G U31A A57G, 0.33; for C29G U48C A57U A64U U69C U74C U80A, 0.05. In the case of A28G G55A U69A U72C, the self-cleavage amounted to 0.23. In the case of A28G G36C U43A A64G U74C it was 0.07; in that of C29U C39U U58G A64U, 0.08. In the case of A28G A56U U78C, the self-cleavage was determined as 0.14. With A28U G33U U74C, the self-cleavage is 0.13. For A28G A35U U41A the value was 0.3; for A28U C40G U76C U80C, 0.11; for C29A A35G U60C U72A, 0.42. For A28G C44A A45U A64U U69A the value was 0.18; for C29U U58A A65G, 0.12. In the case of A28G U31C G33A U43C it was 0.31.

A28G U49C U80A: the self-cleavage amounted to 0.51. For A28G U51A G53A the value was 0.75. For C29U U54C C62U U72A U80G the value was 0.07. In the case of A28G A45U C62A it was 0.1. In the case of A28G C32A A64G U66C, the self-cleavage was 0.17. In the case of G30A C59A U72A it was 0.11.

Take A28C C39U U51C: the self-cleavage was 0.41. As for A28G U41A U78A, the self-cleavage turned out to be 0.13. Consider A28U U41C U54A C62A, for which the self-cleavage came to 0.11. For the variant A28G U41A A45G C62A U67C, the self-cleavage was found to be 0.05. As for A28G U43C A45G U48C, the self-cleavage amounted to 0.15. In the case of G30A C39U U41A it was 0.53. In the case of G30A C32A A35G U49C U76C it was 0.15; in that of A28U U49C U51A U60G U69A, 0.12. For A28G U51C U58C C59U, the self-cleavage was 0.2. In the case of A28G U41C U43C U51A A56U U58C U67A it was 0.07; in that of A28G U66A A75U, 0.32; in that of A28U G53A A56U U80C, 0.4.

As for A28G U66C U74G A75G, the self-cleavage is 0.13. Take A28U U54C U67C: the self-cleavage stood at 0.15. For the variant A28G A35G G52A, the self-cleavage stood at 1.28. For C29U U54C U80C the value was 0.85; for A28G U49A A56G U80A, 0.29. Take A28U U41C A56G U66A: the self-cleavage is 0.24. As for A28U C38U A47G U49C U58C U66C, the self-cleavage came out at 0.09. With C29A C38A U41C, the self-cleavage worked out at 0.1. Take A28G A56G A77U: the self-cleavage worked out at 0.46. For A28U U41C A45G the value was 0.28.

Take G30A A35U U48C U69A: the self-cleavage is 0.06. For A28U U43C A47G U51C A56G U69C the value was 0.03; for C29U U31C C37A U51C U72C, 0.08; for C29U A45G U80C, 0.57. In the case of A28G U41A U80C it was 0.3. Consider A28G U31G A35U, for which the self-cleavage worked out at 0.25. As to A28U U41A U72C, the self-cleavage was 0.18. In the case of A28G C29U U49C it was 0.45; in that of A28U U31C A56U U78C, 0.19; in that of A28G C38A U69C U78C, 0.14.

In the case of A28G U31C A35G A75G U78C, the self-cleavage amounted to 1.05.

As for A28G C38U U43C A56G U76G A77C, the self-cleavage came out at 0.04.

As to A28U U41A U51A A56G, the self-cleavage came out at 0.37. For G30A A47U A77G U80A the value was 0.19; for C29G C50U A64U A65U U69C, 0.13; for C27U U51C U66C, 0.11.

Regarding A28G U66C U72A U78A, the self-cleavage came out at 0.15. For A28G A45G U72C U80A the value was 0.63; for C29U U31C U76C, 0.43. For A28G G30A G52U A64U U76C the value was 0.14. In the case of A28G U41C A47G A65G it was 0.32.

As to A28G C39A U43C A45U A56G, the self-cleavage is 0.47. In the case of A28G C29U U58A U78A it was 0.11; in that of A28C U48C A56U, 0.44. In the case of A28U U48C U76A A77U it was 0.18; in that of A28G A35G U43A U69C, 0.64. Take A28G C29A C37U A64G: the self-cleavage was 0.15.

Regarding A28U U31C U41G U78A, the self-cleavage came to 0.27. In the case of A28C U72A U76A it was 0.38; in that of A28G C34G U48C U54C, 0.24; in that of A28G U67G U69C U72C, 0.2. On to C29U A35G C39U U60C U72A, for which the self-cleavage is 0.

Take A28G U74A U80C: the self-cleavage amounted to 1.19.

On to A28G A45U U49C, for which the self-cleavage came out at 0.14. For A28U A45G U51C C59A the value was 0.23; for C29U C68G U80C, 0.21. Take A28C A57G U58A: the self-cleavage was 0.18.

Take A28U U31C U41A A45C A47U U78C: the self-cleavage was determined as 0.1. For C29U A64C U72A the value was 0.07; for A28C C29U U43C U51A U66C, 0.09. For A28C U58C U69A A75G the value was 0.25; for A28G A45U U76C, 0.43; for A28G C39A U43C A56G, 0.14. For C29U A35G A45U U51C U69C the value was 0.19; for A28U U48C U51C, 0.43.

With A28G C37U U48C A56G, the self-cleavage came to 0.09.

Regarding A28G G42A A64G, the self-cleavage came to 0.1. In the case of A28G A56G C59A U60C it was 0.07. In the case of A28G U41A U48C U67C U72G it was 0.1; in that of A28G A47G U58C A65G, 0.13; in that of A28U C40A A47G U51C A64G U66C U78A, 0.06. In the case of A28G U43A U51A A64U U69C it was 0.15; in that of C29A U58C U76C, 0.18; in that of C27U U43G U49C A56G U74A A75G, 0.08. As for A28G C34A U60A A65G, the self-cleavage was 0.07. In the case of A28U A35U U69A U80A it was 0.18. For C29U U31C G36A U43G C79U the value was 0.16; for A28G U48A U58A U66C, 0.1. For A28U U43G U49A U51C the value was 0.09; for A28C U31G U72A, 0.09; for A28G U66C U72C U76C A77G, 0.21. C29U C38U U54A A56G: the self-cleavage stood at 0.13. In the case of A28C U41C U72C it was 0.35; in that of A28G U49A U54C G55C U72G, 0.19. Turning to C29U A35U U49C U69A, the self-cleavage is 0.14.

Turning to A28G U51C A57G, the self-cleavage came to 0.54. In the case of A28G U48C U51C A56U A64G it was 0.2; in that of A28G U54A A56U, 0.15; in that of A28G U51C G52C C62U, 0.25. Take A28G U49C U54C: the self-cleavage stood at 0.15. In the case of A28G A64G U76C it was 0.51; in that of C29U C44G G53A U80C, 0.23; in that of G30A C40U U48G U80A, 0.18. For A28G U67C U74C the value was 0.25; for A28U U31C U54G, 0.38. On to A28G C32A A47G G63A U69C, for which the self-cleavage was found to be 0.09. For A28U U31C U41C U67C U72C U80C the value was 0.1.

In the case of A28G A35G C37A C39U A47G U67C U72A, the self-cleavage was determined as 0.06. In the case of A28G A56U U58A, the self-cleavage turned out to be 0.19. C29U U41C U78C: the self-cleavage was determined as 0.48. For C29U U67C U74C, the self-cleavage turned out to be 0.17.

A28G G42A U48A A57G: the self-cleavage amounted to 0.

Regarding A28C A47G U67G, the self-cleavage was found to be 0.17. For A28G A35G U54C U67C the value was 0.1; for A28G U41C U51A A64G, 0.47. For A28U C37U U43C the value was 0.11; for C29U U31A U43C U51A U60C, 0.15. In the case of C29U A47G U49C U60C it was 0.16. Turning to A28U G33C A35G, the self-cleavage is 0.2. In the case of A28G A35U G61A it was 0.11; in that of A28U U76G U78C, 0.4. For C29U C38A U41A U74A the value was 0.06; for A28U A64U A65G, 0.2. For C29U U54C U60C the value was 0.14. For the variant A28U A45U A47U U54C U76C U78C, the self-cleavage turned out to be 0.13. For A28U U43C A47G the value was 0.31; for A28G A57U U60C A64U, 0.11; for C29U A47G U54C, 0.41. In the case of A28C C50U U60A, the self-cleavage turned out to be 0.13. For A28U U49A U60C, the self-cleavage was 0.31.

On to A28G A64G U72G U80C, for which the self-cleavage came to 0.43. For A28U U31A U43A U48C A57G the value was 0.24; for A28G U31C U49C A64G U76A, 0.11; for C29U U31A A35U U69A, 0.16. In the case of A28G G30A A65U it was 0.18.

As to A28C U41A U80C, the self-cleavage turned out to be 0.51. For A28U U49C U80C the value was 0.42. In the case of A28U U41A U51G U54C it was 0.2; in that of C29U U48C U51A U67A, 0.16. With C27U U72C A77G, the self-cleavage was found to be 0.27. As for C29U A45G A47G U78C, the self-cleavage is 0.18.

In the case of A28G A35G A45U U51C, the self-cleavage was found to be 0.31. As to A28U U67A U69A U76A, the self-cleavage is 0.19. In the case of A28U G33U A64U it was 0.21.

For the origin of these results see the RNAGym collection of RNA variant scans (doi:10.1093/nar/gkz1192).
